According to patent US20180016313A1 (MEDPACTO, published 2018):

Experiments:
[1] = biological target: T1, mouse LRP6 (mLRP6) protein (Cat. No. 2960-LR-025, R&D, USA) (mouse, UniProt O88572 20-1370, limits assumed); experiment: ELISA, 100 ng mLRP6 coated, DKK2 protein diluted serially from 100 nM, KD calculated from absorbance at 490 nm
T1 construct: Coated on the ELISA plate
T1 sequence (looked up): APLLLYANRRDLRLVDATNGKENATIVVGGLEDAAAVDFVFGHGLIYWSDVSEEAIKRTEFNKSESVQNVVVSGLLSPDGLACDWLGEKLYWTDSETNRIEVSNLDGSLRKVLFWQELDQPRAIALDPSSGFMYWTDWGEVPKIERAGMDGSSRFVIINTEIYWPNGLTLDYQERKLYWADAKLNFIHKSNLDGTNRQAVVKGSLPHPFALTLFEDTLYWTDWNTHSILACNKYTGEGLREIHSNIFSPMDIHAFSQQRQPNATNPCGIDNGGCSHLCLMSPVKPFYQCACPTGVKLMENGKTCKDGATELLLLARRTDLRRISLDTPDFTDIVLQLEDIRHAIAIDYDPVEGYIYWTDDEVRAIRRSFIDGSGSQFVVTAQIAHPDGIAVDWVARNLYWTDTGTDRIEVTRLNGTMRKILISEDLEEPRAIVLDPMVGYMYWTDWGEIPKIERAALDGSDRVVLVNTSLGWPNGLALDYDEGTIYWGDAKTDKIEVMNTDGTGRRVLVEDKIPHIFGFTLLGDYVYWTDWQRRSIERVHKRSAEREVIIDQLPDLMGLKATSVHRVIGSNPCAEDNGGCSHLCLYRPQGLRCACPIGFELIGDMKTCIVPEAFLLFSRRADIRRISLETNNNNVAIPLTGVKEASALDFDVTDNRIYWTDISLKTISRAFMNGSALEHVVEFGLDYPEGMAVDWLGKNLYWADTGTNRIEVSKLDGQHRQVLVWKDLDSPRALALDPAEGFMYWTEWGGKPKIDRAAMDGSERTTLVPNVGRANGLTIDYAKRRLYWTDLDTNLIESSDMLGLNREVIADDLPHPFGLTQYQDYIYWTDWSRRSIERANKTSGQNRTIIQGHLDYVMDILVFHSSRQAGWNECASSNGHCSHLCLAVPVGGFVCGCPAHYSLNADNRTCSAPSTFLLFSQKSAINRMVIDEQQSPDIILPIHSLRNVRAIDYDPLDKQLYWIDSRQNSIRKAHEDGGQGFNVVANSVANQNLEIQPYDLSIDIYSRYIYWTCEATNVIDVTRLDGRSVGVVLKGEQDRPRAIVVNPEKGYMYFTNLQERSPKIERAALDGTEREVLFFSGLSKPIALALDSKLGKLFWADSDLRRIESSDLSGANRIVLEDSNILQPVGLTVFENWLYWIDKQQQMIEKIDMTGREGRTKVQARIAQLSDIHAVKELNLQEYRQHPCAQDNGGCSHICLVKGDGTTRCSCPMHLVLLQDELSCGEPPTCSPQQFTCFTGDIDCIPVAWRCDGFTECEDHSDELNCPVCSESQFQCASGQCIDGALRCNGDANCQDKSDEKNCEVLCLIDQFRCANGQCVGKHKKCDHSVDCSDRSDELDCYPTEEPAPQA
Description: (§1) Each purified DKK2 protein and 100 μl of 1% (w/v) skim milk/1×PBS were mixed to prepare 100 nM of DKK2 protein, and 100 nM of DKK2 protein was subjected to ¼ serial dilution. The diluted protein was applied to the prepared ELISA plate, and incubated at room temperature for about 2 hours. Thereafter, the plate was washed with 200 μl of PBST five times.
(§2) 2 μl of anti-Human Fc-HRP (Cat. No. 31413, Thermo, USA) antibody was mixed with 4 ml of PBS containing 1% (w/v) skim milk, and 200 μl of this mixture was added to each well of ELISA plate and incubated at room temperature for 1 hour. Thereafter, the secondary antibody of the ELISA plate was removed, and the plate was washed with 200 of PBS five times. 10 μl of H₂O₂ solution (Cat. No. H1009-100ML, Sigma, USA), 10 ml of PC buffer (5.1 g of citric acid monohydrate, 7.3 g of sodium phosphate/L (pH 5.0)), and one tablet of OPD (Cat. No. P8787-100TAB, Sigma, USA) were mixed to prepare a mixture, and a total volume of 100 μl of the mixture was added to each well. Incubation was performed at room temperature in the dark for 10 minutes, followed by color development. Thereafter, 50 μl of a stop buffer was added to each well to terminate the color development. Absorbance at 490 nm was measured using an ELISA reader, and a dissociation constant KD value (M) was calculated from the measured absorbance. […]

[2] = biological target: T2, human LRP6 (hLRP6) protein (Cat. No. 1505-LR-025, R&D, USA) (human, UniProt O75581 20-1368, limits assumed); experiment: ELISA, 100 ng hLRP6 coated, DKK2 protein diluted serially from 100 nM, KD calculated from absorbance at 490 nm
T2 construct: Coated on the ELISA plate
T2 sequence (looked up): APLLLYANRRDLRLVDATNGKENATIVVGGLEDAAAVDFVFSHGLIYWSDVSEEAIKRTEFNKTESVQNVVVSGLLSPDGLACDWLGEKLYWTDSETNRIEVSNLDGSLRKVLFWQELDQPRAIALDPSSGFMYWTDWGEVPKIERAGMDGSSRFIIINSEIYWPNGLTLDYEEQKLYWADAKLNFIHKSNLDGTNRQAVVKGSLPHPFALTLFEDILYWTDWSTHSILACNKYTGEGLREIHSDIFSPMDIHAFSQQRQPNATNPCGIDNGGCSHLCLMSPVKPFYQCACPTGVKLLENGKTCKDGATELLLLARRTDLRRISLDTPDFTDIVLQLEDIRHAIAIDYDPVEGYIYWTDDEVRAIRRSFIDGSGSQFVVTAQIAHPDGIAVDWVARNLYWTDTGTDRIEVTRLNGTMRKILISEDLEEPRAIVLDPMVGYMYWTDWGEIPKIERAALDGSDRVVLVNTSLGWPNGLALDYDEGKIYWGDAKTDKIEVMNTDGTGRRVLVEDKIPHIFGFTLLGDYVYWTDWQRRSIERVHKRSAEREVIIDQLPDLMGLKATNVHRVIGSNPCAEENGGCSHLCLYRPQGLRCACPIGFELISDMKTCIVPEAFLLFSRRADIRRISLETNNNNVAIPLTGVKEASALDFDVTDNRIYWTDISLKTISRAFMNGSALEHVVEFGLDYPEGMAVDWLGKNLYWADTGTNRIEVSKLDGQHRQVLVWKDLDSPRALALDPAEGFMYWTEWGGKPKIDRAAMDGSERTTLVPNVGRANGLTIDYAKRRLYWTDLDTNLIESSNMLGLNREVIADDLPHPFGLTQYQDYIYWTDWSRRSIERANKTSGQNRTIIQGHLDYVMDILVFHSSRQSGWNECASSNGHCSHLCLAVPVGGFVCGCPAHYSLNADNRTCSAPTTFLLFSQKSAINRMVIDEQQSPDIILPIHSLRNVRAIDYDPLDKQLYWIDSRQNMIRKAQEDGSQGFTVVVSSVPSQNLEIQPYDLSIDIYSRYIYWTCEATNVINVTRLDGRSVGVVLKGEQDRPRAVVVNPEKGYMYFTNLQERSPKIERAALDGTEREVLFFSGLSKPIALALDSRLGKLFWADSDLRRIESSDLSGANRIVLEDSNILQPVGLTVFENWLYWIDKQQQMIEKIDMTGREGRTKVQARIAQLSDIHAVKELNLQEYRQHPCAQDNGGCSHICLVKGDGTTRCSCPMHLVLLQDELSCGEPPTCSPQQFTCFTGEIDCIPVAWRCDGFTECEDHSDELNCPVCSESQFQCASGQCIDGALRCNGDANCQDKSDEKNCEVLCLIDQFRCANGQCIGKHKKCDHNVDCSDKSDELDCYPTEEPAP
Description: as §1, §2

Kd [1]: 10 nM
Kd [2]: 5.5 nM
B1: N-Fc-DKK2-Gly4 (Fc fusion)
chain: [sequence of human IgG1 Fc not given]KLNSIKSSLGGETPGQAANRSAGMYQGLAFGGSKKGKNLGQAYPCSSDKECEVGRYCHSPHQGSSACMVCRRKKKRCHRDGMCCPSTRCNNGICIPVTESILTPHIPALNGTRHRDRNHGHYSNHDLGWQNLGRPHTKMSHIKGHEGDPCLRSSDCIEGFCCARHFWTKICKPVLHQGEVCTKQRKKGSHGLEIFQRCDCAKGLSCKVWKDATYSSKARLHVCQKI
notes: also called DKK2 N-Gly4; N-Fc-DKK2-N-Gly4
